# Results reported in PubChem BioAssay AID1466 (National Center for Advancing Translational Sciences (NCATS), 2008).
# The campaign covered roughly 200,000 compounds. About 10 (0.005%) were called active. The inconclusive results got no clear call from the source; some entries with a clear call stand among them for comparison. Calls come from the whole dose curve; as a rule, active = well fitted inhibition curve with a large enough effect; inconclusive = small, poorly fitted or top-dose-only effect, or effect the other way, or another doubt; inactive = no such curve, though single readings can be large or run the other way. No potency is given beside an inconclusive call; the fits are too rough.
# Target: Lysosomal alpha-glucosidase (Homo sapiens) (UniProt P10253)
# Test: qHTS Assay for Inhibitors of Human alpha-Glucosidase as a Potential Chaperone Treatment of Pompe Disease;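 for activity change, negative = inhibition: plate controls were uninhibited enzyme wells for no effect and no-enzyme background for full effect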
# Conditions: purified human GAA, 4-MU-alpha-glucoside fluorescence; activity change, negative = inhibition: at 76.9 µM (top of the series) unless noted
# Method in brief: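 Fluorogenic assay: 4 nM human alpha-glucosidase with 400 uM 4-methylumbelliferyl-alpha-D-pyranoside in 50 mM citrate/phosphate, 0.005% Tween-20, pH 5.0, 20 min at room temperature. Compounds tested up to 77 uM; AC50 from Hill fits.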
# Potency is the fitted concentration of half-maximal effect; tags give direction and shape of the fitted curve.
SMILES,"activity change, negative = inhibition",Potency
Cc1ccc(-c2nnc(SCC(N)=O)n2C)cc1,inconclusive: 15.5% [activator],–
C=CCOc1ccc(NC(=O)C2CC(=O)N(C(C)C)C2)cc1 (stereo unspecified),–,"inconclusive [inhibitor, partial curve, poor fit]"
CC(C)(C)OC(=O)N1CCN(C(=O)c2cccnc2Cl)CC1,inconclusive: 18% [activator],–
O=C1c2ccccc2NC(c2cccnc2)N1c1ccccc1F (stereo unspecified),–,"inconclusive [activator, partial curve]"
COc1ccc(C(=O)CSc2nnnn2C)c(OC)c1,inconclusive: 17% [activator],–
CCCc1nc2ccccc2c(C(=O)OCC(=O)N2CCc3ccccc32)c1CC,–,"inconclusive [inhibitor, single point]"
Cc1sc2nc3ccc(NCc4ccco4)nn3c(=O)c2c1C,–,"inconclusive [inhibitor, partial curve, poor fit]"
COc1cc(SC)ccc1C(=O)N1CCN(Cc2ccccc2)CC1,–,"inconclusive [activator, full curve, poor fit]"
c1coc(CNc2nc(N3CCCCC3)nc3ccccc23)c1,–,"inconclusive [activator, partial curve]"
CN1CCc2c(sc(/N=C/c3cccs3)c2C(N)=O)C1,–,"inconclusive [activator, single point]"
Cc1ccc2c(c1)[nH]c1c(N3CCN(Cc4ccccc4)CC3)ncnc12,–,"inconclusive [inhibitor, partial curve, poor fit]"
COc1ccc(OC)c(/C=C/C(=O)OCC(=O)Nc2ccc3c(c2)OCCO3)c1,–,"inconclusive [activator, single point]"
CN(c1cccc(NC(=O)CN(c2ccc(C34CC5CC(CC(C5)C3)C4)cc2)S(C)(=O)=O)c1)S(C)(=O)=O,–,"inconclusive [inhibitor, single point]"
O=[N+]([O-])c1ccccc1OCCCn1cnc2ccccc21,inconclusive: 14.2% [activator],–
Cc1ccccc1N(CC(=O)NCC1CCCO1)C(=O)C1(C)CC(=O)N=C2C=CC=CN21 (stereo unspecified),–,"inconclusive [activator, single point]"
Cc1ccc(S(=O)(=O)N2CCC(C(=O)O)CC2)cc1C(=O)O,–,"inconclusive [inhibitor, partial curve]"
NNC(=O)CNC(c1ccccc1)c1cc(Br)ccc1NC(=O)c1cccc(Cl)c1 (stereo unspecified),–,"inconclusive [inhibitor, full curve, poor fit]"
COc1cc(C(=O)NC(=S)Nc2nccs2)cc(OC)c1OC,–,"inconclusive [inhibitor, single point]"
COc1cc(/C=C(\C#N)c2[nH]nc(N)c2C#N)cc(OC)c1O,–,"inconclusive [inhibitor, partial curve, poor fit]"
O=C(CSc1nnc(Cc2cccs2)n1Cc1ccco1)Nc1cccc(Cl)c1,–,"inconclusive [inhibitor, single point]"
Nc1nn(-c2ccccc2)c(N)c1N=Nc1ccccc1F,–,"inconclusive [inhibitor, single point]"

SMILES,"activity change, negative = inhibition",Potency
CCc1cc2c(=O)c(Oc3ccccc3)c(C)oc2cc1O,–,"inconclusive [activator, partial curve]"
COc1cc(NC(=O)c2cccs2)c(C(=O)OCC(=O)NC(=O)NCc2ccccc2)cc1OC,–,"inconclusive [activator, single point]"
O=C(CCCN1C(=O)c2ccccc2C1=O)Nc1ccc(S(=O)(=O)N2CCCCC2)cc1,–,"inconclusive [inhibitor, partial curve]"
CCOc1cc(/C=N/NC(=O)Nc2ccccc2)ccc1O,–,"inconclusive [inhibitor, single point]"
NC(=O)c1ccc(C(=O)c2ccc([N+](=O)[O-])cc2)cc1,–,"inconclusive [inhibitor, single point]"
Cc1ccc(C(C(=O)NC(C)(C)C)N(CCCN2CCOCC2)C(=O)c2ccc(-c3ccccc3)[nH]2)o1 (stereo unspecified),–,"inconclusive [inhibitor, full curve, poor fit]"
Cc1cccn2c(=O)c3cc(C(=O)O)n(C)c3nc12,–,"inconclusive [activator, partial curve]"
Cc1ccc(N2CC(C(=O)Nc3ccc(S(=O)(=O)N4CCCC4)cc3)CC2=O)cc1 (stereo unspecified),–,"inconclusive [inhibitor, full curve, poor fit]"
Cc1cccc(NC(=O)CCN2CC(C)OC(C)C2)c1 (stereo unspecified),–,"inconclusive [inhibitor, partial curve]"
CCN(CC)C(=O)C1CCCN(c2ccc([N+](=O)[O-])cc2[N+](=O)[O-])C1 (stereo unspecified),–,"inconclusive [activator, full curve]"
Nc1nc(N)c2c(ccc3nccc32)[nH]1,–,"inconclusive [activator, single point]"
Cc1[nH]c2ccccc2c1N=Nc1cc(C(=O)O)cc(C(=O)O)c1,–,"inconclusive [inhibitor, single point]"
C=CCNC(=S)NNc1nc2c(c(=O)[nH]1)C1(CCCCC1)Cc1ccccc1-2,–,"inconclusive [inhibitor, single point]"
COc1ccc([N+](=O)[O-])cc1NCc1ccccc1,–,"inconclusive [inhibitor, single point]"
O=C(Cn1nc(-c2ccccc2F)ccc1=O)Nc1ccc(S(=O)(=O)N2CCCCCC2)cc1,–,"inconclusive [inhibitor, partial curve]"
Cn1cccc1-c1nc2ccccc2n1C,–,"inconclusive [inhibitor, single point]"
Cc1cc(N2CCCC2)nc2ccccc12,–,"inconclusive [activator, partial curve]"
CN(/N=C/c1cccnc1)c1cnc2ccccc2n1,–,"inconclusive [inhibitor, partial curve]"
CCc1ccccc1NC(=O)CN(C)C(=O)Cn1cc(C(F)(F)F)cc(Cl)c1=O,–,"inconclusive [inhibitor, single point]"
CCCCc1ncc(CN2CCC(CC3CCCCO3)(C(=O)OCC)CC2)[nH]1 (stereo unspecified),inconclusive: 14.7% [activator],–
COc1cc(OC)cc(C(=O)Nc2cc(-c3cn4cccnc4n3)ccc2C)c1,–,"inconclusive [activator, partial curve]"

SMILES,"activity change, negative = inhibition",Potency
Cc1ccccc1Cn1c(=O)n(CCCC(=O)NCc2ccco2)c(=O)c2ccccc21,–,"inconclusive [inhibitor, full curve, poor fit]"
CCOC(=O)CC(NC(=O)Cn1nnc(-c2ccccc2C)n1)c1ccc(OC)cc1 (stereo unspecified),–,"inconclusive [inhibitor, single point]"
CC1(C(=O)N(c2ccccc2)C(C(=O)NC2CCCC2)c2ccccn2)CC(=O)N=C2C=CC=CN21 (stereo unspecified),–,"inconclusive [activator, single point]"
CCN(CC)c1ncnc2c1sc1nc(C)cc(C)c12,–,"inconclusive [inhibitor, single point]"
O=[N+]([O-])c1cccc(-n2nnnc2CN2CCCCCC2)c1,inconclusive: 15% [activator],–
CN(C)c1ccc(/C=N/NC(=O)CNC(=O)c2ccco2)cc1,–,"inconclusive [activator, partial curve, poor fit]"
Cc1ccc2ccc(C(Nc3ccccn3)c3ccccc3)c(O)c2n1 (stereo unspecified),inactive: -11.8% [at 15.4 µM],–
CN1CCC2(CC1)C1CN(C)CC=C1C(C#N)=C(N)C2(C#N)C#N (stereo unspecified),–,"inconclusive [activator, single point]"
Cc1cc(N2CCOCC2)nc2ccc(NC(=S)N3CCCCC3C)cc12 (stereo unspecified),–,"inconclusive [activator, partial curve]"
O=C(Nc1nnc(-c2ccccc2F)s1)Nc1ccccc1F,inconclusive: 19.6% [activator],–
CC(NC(=O)c1ccc(S(=O)(=O)N(C)C)cc1)c1ccccc1 (stereo unspecified),–,"inconclusive [inhibitor, full curve, poor fit]"
COC(=O)C1=C(C)NC(C)=C(C(=O)OC)C1c1ccc(OC(=O)c2oc3ccccc3c2C)c(OC)c1,–,"inconclusive [inhibitor, single point]"
COc1ccccc1N1CCN(CC(=O)Nc2c(C)n[nH]c2C)CC1,–,"inconclusive [inhibitor, single point]"
COc1ccc(N2CCN(C(c3cc4cc(C)ccc4[nH]c3=O)c3nnnn3Cc3ccccc3)CC2)cc1 (stereo unspecified),–,"inconclusive [inhibitor, single point]"
O=C(Nc1ccccc1N1CCCCC1)c1cccc([N+](=O)[O-])c1,–,"inconclusive [inhibitor, full curve, poor fit]"
O=C(CCCNC(=O)c1ccc(Cl)cc1)Nc1ccc(S(=O)(=O)Nc2ncccn2)cc1,–,"inconclusive [inhibitor, full curve, poor fit]"
Cc1coc(C)c1C(=O)CC1(O)C(=O)N(CCc2ccccc2)c2ccccc21 (stereo unspecified),–,"inconclusive [inhibitor, partial curve]"
CCn1c(CCNC(=O)c2ccc(Cl)cc2)n[nH]c1=S,–,"inconclusive [inhibitor, single point]"
COc1ccc(NC(=O)CSC2=NC(=O)CC(C)=N2)cc1,inconclusive: -15.5% [inhibitor],–
